# Results published in the supplement of paper PMC3334620.
# Whole data set: some 33,000 sequences, median “E-score (-0.5 to 0.5)” near -0.053, cut for the highest 2% near 0.37. Some of the results follow.
# Target: Hap1 (UniProt P0CE41)
# Assay: PBM E-score (8-mer binding enrichment) (E-score (-0.5 to 0.5)); higher = stronger / more preferred TF binding; most listed sequences are background and not binding sites
# Conditions: protein concentration: 200 nM; construct: GST-DNA-binding domain
# Summary of the method: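 E-scores (a modified Wilcoxon-Mann-Whitney statistic) were assigned by the Universal PBM Analysis Suite to every ungapped eight-base word pooled with its reverse complement. The input came from universal all-10-mer Agilent arrays made double-stranded by primer extension and probed with GST-tagged yeast transcription factors at about 100-200 nM. Fluorescent anti-GST detected bound protein, and masliner normalised the scans.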
# Sequence of UniProt P0CE41 (P0CE41 whole entry): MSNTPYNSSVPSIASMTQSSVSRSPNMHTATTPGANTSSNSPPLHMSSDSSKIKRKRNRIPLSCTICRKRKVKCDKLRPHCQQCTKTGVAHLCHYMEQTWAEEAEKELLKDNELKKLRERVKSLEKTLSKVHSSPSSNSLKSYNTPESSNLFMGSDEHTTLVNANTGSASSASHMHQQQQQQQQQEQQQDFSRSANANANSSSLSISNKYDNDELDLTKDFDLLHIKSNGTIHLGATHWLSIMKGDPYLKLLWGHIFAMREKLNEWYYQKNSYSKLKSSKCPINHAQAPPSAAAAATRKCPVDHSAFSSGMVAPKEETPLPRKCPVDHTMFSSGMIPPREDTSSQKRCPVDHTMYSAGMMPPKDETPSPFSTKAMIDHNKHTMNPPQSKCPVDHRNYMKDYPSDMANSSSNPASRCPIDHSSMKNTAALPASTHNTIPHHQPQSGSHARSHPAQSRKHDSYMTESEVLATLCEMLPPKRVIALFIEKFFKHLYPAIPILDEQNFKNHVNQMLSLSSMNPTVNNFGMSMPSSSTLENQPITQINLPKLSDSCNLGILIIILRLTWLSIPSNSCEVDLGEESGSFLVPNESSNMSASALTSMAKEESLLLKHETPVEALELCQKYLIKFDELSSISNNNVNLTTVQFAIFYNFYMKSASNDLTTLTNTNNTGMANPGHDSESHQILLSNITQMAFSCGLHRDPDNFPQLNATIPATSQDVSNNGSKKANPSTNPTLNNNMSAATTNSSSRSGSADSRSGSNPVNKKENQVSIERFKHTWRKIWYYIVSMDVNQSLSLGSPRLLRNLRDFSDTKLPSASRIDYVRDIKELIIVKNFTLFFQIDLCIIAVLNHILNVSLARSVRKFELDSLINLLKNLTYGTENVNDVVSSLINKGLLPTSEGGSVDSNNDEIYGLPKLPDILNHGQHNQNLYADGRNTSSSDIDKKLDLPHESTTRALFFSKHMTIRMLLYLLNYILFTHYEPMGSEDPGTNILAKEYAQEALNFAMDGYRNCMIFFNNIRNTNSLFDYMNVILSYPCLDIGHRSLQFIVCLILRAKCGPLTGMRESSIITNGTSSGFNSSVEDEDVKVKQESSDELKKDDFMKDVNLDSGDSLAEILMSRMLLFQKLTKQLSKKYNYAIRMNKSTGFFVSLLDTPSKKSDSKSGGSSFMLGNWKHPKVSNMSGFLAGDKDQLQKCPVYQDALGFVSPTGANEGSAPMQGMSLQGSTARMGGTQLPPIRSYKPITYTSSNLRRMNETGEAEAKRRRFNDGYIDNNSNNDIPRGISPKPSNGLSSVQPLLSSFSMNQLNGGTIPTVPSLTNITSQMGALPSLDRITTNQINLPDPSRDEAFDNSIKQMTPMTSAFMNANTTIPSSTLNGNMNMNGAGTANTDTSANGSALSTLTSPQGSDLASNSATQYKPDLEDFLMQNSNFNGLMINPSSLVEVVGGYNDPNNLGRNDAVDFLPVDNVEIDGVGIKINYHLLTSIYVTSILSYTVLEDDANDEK
row,Sequence,PBM E-score
1,CCCCAGCG,-0.0863
2,CACTCGGG,0.159
3,AGGTGCTG,-0.13
4,AAAATTAG,-0.00754
5,AACGAGAC,-0.0865
6,CATACAAA,0.0392
7,ATTGCGCG,0.224
8,GACACGGC,0.183
9,GGAAGCAA,0.0931
10,ATCATTTA,-0.016
11,CATAAGGC,-0.0459
12,ACCTAATC,-0.0221
13,AAAGATAT,0.093
14,GAATGCCC,0.0594
15,ATGTGGAG,-0.0382
16,CACGCCCG,0.281
17,CCAGATTC,0.0428
18,TCGCAGCA,-0.195
19,GAAACATC,-0.0136
20,CTGACCAG,-0.142
21,ATAGACGG,0.11
22,AGCGAGAG,-0.0312
23,AGTAGAGG,-0.298
24,TAACTGTA,-0.343
25,AGTTACGC,-0.125

row,Sequence,PBM E-score
1,GCCACGAC,0.1
2,ATTGGAAC,-0.124
3,AATGACCT,-0.103
4,GTGTGGAA,-0.0715
5,CCATGGAA,-0.178
6,CTCTGTTA,0.0174
7,CTACATCA,0.0111
8,TAGTATCA,0.0451
9,GAAAGGAA,0.187
10,AGGTGATG,-0.225
11,GCACTGTA,-0.142
12,CTCTAATA,-0.1
13,ACCTCGTG,-0.132
14,AACAGCCA,-0.0921
15,AAACTGAA,-0.0118
16,ACGACCGG,0.292
17,ACTTATTG,-0.145
18,AAGGGTTC,-0.121
19,ATTATGTG,0.0607
20,ATGTCGTC,-0.0753
21,ACTTCGCC,0.264
22,CGAGTTCA,-0.134
23,AAGGATAC,-0.124
24,GGGCCTAA,-0.0132
25,CCTTTACA,-0.15

row,Sequence,PBM E-score
1,CCACGATA,-0.00906
2,GCCCTGCA,-0.21
3,CGGCTGTA,0.311
4,CTCCTGAA,0.0126
5,AGACGTAA,-0.14
6,AACCGAAG,0.226
7,AAGATACC,0.0509
8,GGATAGAA,0.126
9,CCTGCGAG,-0.109
10,GCTAGACA,-0.0458
11,ACAGGCTA,-0.188
12,TGATTAAA,-0.0498
13,ACCGAGAT,0.287
14,ATTTTAAG,-0.0463
15,AAGGGCGT,-0.0867
16,AGGTAACG,0.125
17,CATTTTCG,0.163
18,CACTCTCG,0.173
19,CGCCCAAG,-0.213
20,TCGAATAA,-0.0975
21,CCAGACAC,-0.313
22,CTCGGTCC,0.35
23,CGGTTACA,0.303
24,CGTGATAG,-0.156
25,CATTACCC,0.06

row,Sequence,PBM E-score
1,CATCGCCC,0.128
2,CTAAACTA,-0.17
3,CAGGATAG,-0.103
4,AGGTGCCC,-0.105
5,CAAACTAG,-0.315
6,ATGAACAT,-0.149
7,GAACAGTC,-0.105
8,ATCTTGGC,-0.164
9,AGAAAGAG,-0.192
10,CCCGTTTC,0.19
11,ATGTGTGA,-0.0479
12,ATCTTTCC,0.131
13,GATACGTA,-0.0228
14,AAGTAATC,0.0821
15,CCATGCCA,-0.139
16,AGTGAAAG,-0.184
17,CAAGGTCA,-0.214
18,ATTCTCGC,-0.173
19,AGGAGCTG,-0.0348
20,AAGGGCGA,0.043
21,TCCAGGGA,-0.372
22,CACACTCC,-0.104
23,ACAGGGCG,-0.00027
24,ATCCCGTG,0.199
25,AACATATC,0.192

row,Sequence,PBM E-score
1,CGGGAGAC,0.216
2,GCTCGGGA,0.286
3,ATCCATTG,-0.138
4,GGCATGGA,0.0822
5,AGCGCCAG,-0.0224
6,CTGAATGC,-0.126
7,ACTCAGGC,-0.122
8,CCTGTCAA,-0.202
9,AGCACCCT,-0.214
10,GTTATGTA,0.0817
11,GTGTTCTA,-0.0276
12,ACGGCGTA,-0.148
13,ATTTGAGA,-0.134
14,AAGGAACC,0.159
15,AAAAGTAT,-0.0239
16,AATCAACC,-0.0544
17,AGAAGTGC,-0.0776
18,AGCAAGCT,-0.382
19,CTAAGAGC,-0.0334
20,AACCTCGA,-0.0671
21,ACTCACCA,-0.109
22,ACGCTGAG,-0.144
23,AAAATACC,0.138
24,AAGACCCC,0.0634
25,TAATGGAA,0.0291

row,Sequence,PBM E-score
1,CGAATCAC,0.123
2,ATCAGTTA,-0.0403
3,AGGTGGAT,-0.159
4,ACGATGAT,-0.164
5,CTTTTCTA,-0.242
6,CTTCTAAA,-0.113
7,TAGACTGA,-0.123
8,CGATCCAG,-0.0468
9,GTTCGGCA,0.125
10,TCCGCACA,0.139
11,CGTGGCGA,0.00589
12,ATAAAAAA,0.0729
13,AACGTTAG,0.0118
14,GGGTACTA,0.0263
15,CACTCCTA,-0.0848
16,CTAAATTC,0.0663
17,CGGTTCAC,0
18,GACTAAGA,0.0555
19,AAGACGTA,-0.164
20,AAGCGGAT,0.245
21,ATGAGGTA,-0.143
22,CGGAAGCC,0.199
23,GCAACATA,-0.139
24,AGTGGCGA,0.0958
25,GTGTCTGA,-0.212

row,Sequence,PBM E-score
1,GCGAAGAA,-0.0486
2,GTGTCCTA,-0.0863
3,ATTCCACG,0.00865
4,TGACACCA,-0.258
5,GCCTAAAC,-0.165
6,ATGGCCGA,0.359
7,GGCGGCAA,0.114
8,TCGGGTAA,0.124
9,CGGCCTGC,0.0613
10,AGCGCGTG,-0.0591
11,GCGGAGAC,0.348
12,AGTAGTGC,0.078
13,AACCGCGA,0.196
14,AGGGCGAC,-0.0507
15,GGGATGAC,0.111
16,CGTCATAG,-0.0979
17,GAACATAA,0.0853
18,TCACCGCA,0.0366
19,CCAGCTGG,-0.112
20,AAGCCGAC,0.298
21,AGGCCCAC,-0.318
22,AACTTGGA,-0.0991
23,CCACCTCC,-0.00752
24,ACTTCCGA,0.31
25,CGTTCAGC,-0.12

row,Sequence,PBM E-score
1,GAATACGC,0.0229
2,ACCGTCAA,-0.0051
3,ACGATGCA,-0.108
4,ATAGTAGA,-0.0574
5,ACTGTTGA,-0.17
6,AGTATCTG,-0.118
7,TATATGAA,-0.0659
8,GAGGTATA,-0.122
9,ATGTTCAA,0.123
10,CGTGGTTA,-0.251
11,CCGCCTTA,-0.0179
12,CCGCACGG,0.191
13,CAGGTTGG,-0.115
14,ACAATGCA,-0.0452
15,CGAAAGCC,0.15
16,AGTACTAA,-0.0628
17,AAGTTCCT,-0.0383
18,AAGACACG,0.0021
19,AGTCCGTC,0.325
20,AGATTCCA,-0.0282
21,GCAGAATA,0.0458
22,CAACTCAC,-0.213
23,ACGAGCCC,-0.133
24,AGGATATG,0.0112
25,ATTCTATG,-0.155

row,Sequence,PBM E-score
1,ATACCGAA,0.296
2,TGAACAAA,0.0224
3,ATACGGGC,0.168
4,CAGTCTGG,-0.305
5,AGCGCGGA,0.223
6,CTTTGCCC,-0.168
7,ACGCACTA,-0.157
8,CCCCTGAA,-0.166
9,ATGTATGG,-0.238
10,AGACCCCC,-0.0514
11,ATCTATTA,-0.0002
12,CATCCAAG,-0.197
13,GCTAGTTA,-0.113
14,AGCACGAT,-0.101
15,CCTTCAAG,-0.253
16,AAGGGTAG,-0.173
17,AAGTTCAT,0.0764
18,CACGTTGC,-0.165
19,AGGGAGTA,-0.277
